Results on 58 compounds are retold here after article PMC4336329 (PLoS ONE, 2015).

The campaign covered roughly 310,000 compounds. About 2,200 (0.71%) showed an effect of 50% or more. Effects have a minus sign here. The list shows a part of the results.

In this test the target is human ether-à-go-go-related gene (hERG) potassium channel (human, UniProt Q12809). Nature of the test: primary screen, population patch clamp on CHO cells stably expressing hERG.
Chain of human ether-à-go-go-related gene (hERG) potassium channel (Q12809 whole entry, looked up): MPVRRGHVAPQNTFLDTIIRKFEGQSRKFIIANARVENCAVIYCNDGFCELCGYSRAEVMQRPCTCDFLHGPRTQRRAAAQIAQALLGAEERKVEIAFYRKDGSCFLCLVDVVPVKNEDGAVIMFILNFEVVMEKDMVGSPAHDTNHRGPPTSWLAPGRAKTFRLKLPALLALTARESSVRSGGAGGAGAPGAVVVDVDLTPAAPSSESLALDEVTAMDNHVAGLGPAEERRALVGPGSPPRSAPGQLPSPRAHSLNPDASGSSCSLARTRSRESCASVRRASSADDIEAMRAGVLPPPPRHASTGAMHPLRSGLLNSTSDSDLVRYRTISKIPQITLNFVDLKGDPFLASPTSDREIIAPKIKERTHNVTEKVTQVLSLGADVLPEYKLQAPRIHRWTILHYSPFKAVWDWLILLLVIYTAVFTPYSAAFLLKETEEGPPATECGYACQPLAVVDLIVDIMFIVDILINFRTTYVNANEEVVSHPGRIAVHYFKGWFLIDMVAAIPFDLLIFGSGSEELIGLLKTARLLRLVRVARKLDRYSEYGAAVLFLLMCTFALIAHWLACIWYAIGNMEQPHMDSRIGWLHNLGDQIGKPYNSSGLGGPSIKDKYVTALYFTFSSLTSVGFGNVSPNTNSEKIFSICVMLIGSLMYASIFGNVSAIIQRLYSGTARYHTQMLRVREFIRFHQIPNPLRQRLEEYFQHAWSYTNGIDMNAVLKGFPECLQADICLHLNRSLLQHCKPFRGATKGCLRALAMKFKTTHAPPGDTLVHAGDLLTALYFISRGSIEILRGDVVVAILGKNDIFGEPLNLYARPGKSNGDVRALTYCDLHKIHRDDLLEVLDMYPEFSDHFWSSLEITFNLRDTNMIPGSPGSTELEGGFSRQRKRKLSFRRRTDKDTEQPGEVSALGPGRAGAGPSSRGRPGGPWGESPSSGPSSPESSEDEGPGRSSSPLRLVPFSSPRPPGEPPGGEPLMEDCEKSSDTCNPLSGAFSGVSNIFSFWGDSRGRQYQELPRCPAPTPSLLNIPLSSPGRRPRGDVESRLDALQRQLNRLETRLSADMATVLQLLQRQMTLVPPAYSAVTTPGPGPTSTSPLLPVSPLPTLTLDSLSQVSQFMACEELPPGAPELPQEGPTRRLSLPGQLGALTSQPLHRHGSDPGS
With `CN(C)S(=O)(=O)c1ccc(NC(=O)CN2CCCc3ccccc32)cc1`, the “hERG current change (%, negative = inhibition) at 1uM” value was determined as 1.08%. With `O=C(Nc1nc(-c2ccccc2)cs1)c1ccc(S(=O)(=O)N2CCc3ccccc32)cc1` the figure was 7.7%; with `COCCN(C(=O)CN1CCCc2ccccc21)c1c(N)n(Cc2ccccc2)c(=O)[nH]c1=O`, -6.7%; with `CCOC(=O)C1=C(COC(=O)CCOc2ccc(OCC)cc2)NC(=O)NC1C` (stereo not shown), 2.97%. In the case of `COC(=O)C1=C(C)N(CCCC(=O)O)C(=O)NC1c1ccc(Br)cc1` (stereo not shown) it was -15%; in that of `O=C(Nc1cccc(NC(=O)c2cccs2)c1)c1ccco1`, 2.87%. `Cn1nc(-c2ccccc2)cc1NC(=O)C1CCCCC1`: the “hERG current change (%, negative = inhibition) at 1uM” value is 5.36%. For `Cc1noc(C)c1CSc1nc2sc(C)c(C)c2c(=O)n1C1CCCC1`, the “hERG current change (%, negative = inhibition) at 1uM” value turned out to be 12.8%. With `CCCS(=O)(=O)N1CCC(C(=O)NCc2ccco2)CC1`, the “hERG current change (%, negative = inhibition) at 1uM” value is 13.6%. With `CCOc1ccc(-c2ccc(SCc3ccccn3)nn2)cc1` the figure was -4.03%; with `COc1ccc(CCNC(=O)c2ccccc2C(=O)NCCc2ccc(OC)c(OC)c2)cc1OC`, 11.2%; with `O=C1CC(Nc2cc(=O)[nH]c(=O)[nH]2)C(=O)N1c1ccccc1Cl` (stereo not shown), 22.3%.

Regarding `Cc1onc(-c2ccccc2)c1CNS(=O)(=O)c1ccccc1[N+](=O)[O-]`, the “hERG current change (%, negative = inhibition) at 1uM” value is recorded as 10.1%. With `Cc1ccc(S(=O)(=O)NCCC2=CCCCC2)cc1C(N)=O` the figure was -21%.

As to `Nc1nonc1OCCOCCOCCOc1nonc1N`, the “hERG current change (%, negative = inhibition) at 1uM” value is 13.8%. In the case of `CCCCn1c(N)c(N(CC(C)C)C(=O)CSCc2ccc(Cl)c(Cl)c2)c(=O)[nH]c1=O` it was 4.18%; in that of `CCOC(=O)C1=C(C)Nc2nc3ccccc3n2C1c1ccccc1` (stereo not shown), 9.22%. In the case of `NC(=S)N/N=C/c1ccccc1[N+](=O)[O-]` it was 9.31%; in that of `CC(=O)Nc1ccc(S(=O)(=O)NC(C)C(=O)OCC(=O)NC2CCCC2)cc1` (stereo not shown), -4.61%; in that of `CC(NC(=O)COC(=O)CCc1ccc(S(=O)(=O)N2CCOCC2)cc1)C1CC2CCC1C2` (stereo not shown), 5.75%. Regarding `CN1CCN(c2nc(-c3ccc(Cl)s3)cs2)CC1`, the “hERG current change (%, negative = inhibition) at 1uM” value was 14.6%.

On to `C[C@@H](NC(=O)c1[nH]cnc1C(=O)Nc1cccc(Cl)c1)c1ccccc1`, for which the “hERG current change (%, negative = inhibition) at 1uM” value was determined as 5.98%.

For `S=C(NNC(=S)Nc1ccccc1)Nc1ccccc1`, the “hERG current change (%, negative = inhibition) at 1uM” value came out at 9.53%. In the case of `Cc1ccc(C(=O)O/N=C/c2c(C(F)(F)F)nn(C)c2Sc2ccc(Cl)cc2)cc1` it was 16.8%; in that of `Cc1ccccc1OCC(=O)NCC(=O)OCC(=O)c1ccc([N+](=O)[O-])cc1`, 9.19%; in that of `CC1C2(C)OC(=N)C(C#N)(C(C)O2)C1(C#N)C#N` (stereo not shown), 13.5%. Turning to `CNCC(O)CN(c1ccccc1)c1ccccc1` (stereo not shown), the “hERG current change (%, negative = inhibition) at 1uM” value is reported as -13.1%. With `Cn1c2ccccc2c(=O)c2c(=O)n(Cc3ccco3)c(COc3ccccc3)nc21` the figure was 8.25%; with `O=C(/C=C/NNC(=O)c1ccc(Cl)cc1)c1ccccc1`, 24.3%.

For the compound `Nc1nc(N2CCN(c3ccc(Cl)cc3)CC2)n[nH]1`, the “hERG current change (%, negative = inhibition) at 1uM” value is given as 9.77%.

Take `Cc1ccc(CCC(=O)Nc2ccccc2C(=O)O)o1`: the “hERG current change (%, negative = inhibition) at 1uM” value stood at 13.4%. With `CC(C)(C)c1ccc(OCc2nc(-c3ccccn3)no2)c(Br)c1` the figure was 16.1%; with `COc1cccc(COC(=O)Cc2ccc(S(=O)(=O)N3CCOCC3)s2)c1OC`, 17.4%; with `CCOc1ccc2nc(SCC(=O)c3ccc(C)s3)sc2c1`, 13.6%.

Regarding `O=C(CCc1ccccc1)NC(=S)Nc1ccc2c(c1)C(=O)OC2`, the “hERG current change (%, negative = inhibition) at 1uM” value was determined as 4.97%.

Turning to `Br.CCCCCCCCCCCCn1ccc(=N)cc1`, the “hERG current change (%, negative = inhibition) at 1uM” value stood at 1.82%. In the case of `CCCCc1nc2cc(C(=O)N3CCN(c4nc(C)cnc4C)CC3)ccc2o1`, the “hERG current change (%, negative = inhibition) at 1uM” value amounted to 4.1%. As to `CC(C)CN(C(=O)Cn1ccccc1=O)C1CCS(=O)(=O)C1` (stereo not shown), the “hERG current change (%, negative = inhibition) at 1uM” value worked out at 4.44%. As to `CC(C)CNC(=O)CSc1n[nH]c(=O)n1CCc1ccccc1`, the “hERG current change (%, negative = inhibition) at 1uM” value is reported as 16.1%. With `c1ccc(CCc2nn3c(Cn4cnc5ccccc54)nnc3s2)cc1` the figure was 3.21%.

As for `O=c1[nH]c(C2CCN(S(=O)(=O)c3ccccc3F)CC2)nc2c1nnn2Cc1ccc(F)cc1`, the “hERG current change (%, negative = inhibition) at 1uM” value came out at 13.7%. Take `CC1(C(=O)O)CCC(C(=O)Nc2ccc(F)cc2)C1(C)C` (stereo not shown): the “hERG current change (%, negative = inhibition) at 1uM” value is recorded as 9.47%.

Turning to `COc1ccc(C(=O)OCC(=O)NC2CC2)cc1OC`, the “hERG current change (%, negative = inhibition) at 1uM” value was 7.05%.

On to `O=C(COC(=O)CSc1cccc2cccc(Cl)c12)Nc1ncc(C(F)(F)F)cc1Cl`, for which the “hERG current change (%, negative = inhibition) at 1uM” value is reported as 10.4%. As to `COC(=O)/C=C1\S/C(=N/N=C/c2ccccc2)NC1=O`, the “hERG current change (%, negative = inhibition) at 1uM” value is -0.633%. With `Cc1cccc(CNC(=O)c2cc(S(=O)(=O)N3CCOCC3)cn2C)c1` the figure was 13.6%; with `Cc1ccc(C(=O)NCC2CCCO2)cc1N1CCCC1=O` (stereo not shown), 6.37%. In the case of `CCC(Cc1ccccc1)NS(=O)(=O)c1c(C)nc2sccn2c1=O` (stereo not shown) it was 4.12%; in that of `O=C(NC1CCCC1)C(c1ccncc1)N(C(=O)Cn1nnc(-c2ccccc2F)n1)c1cccc(F)c1` (stereo not shown), 2.57%. In the case of `O=C(O)c1ccccc1N1C(=O)C2C3CCC(C3)C2C1=O` (stereo not shown), the “hERG current change (%, negative = inhibition) at 1uM” value is reported as 5.59%.

Turning to `CC1CCc2sc(C(=O)N(C)CC(=O)Nc3ccc(N4CCOCC4)cc3)cc2C1` (stereo not shown), the “hERG current change (%, negative = inhibition) at 1uM” value came to 2.65%. For the compound `CC1CCCCN1CC(=O)Nc1ccc2c(c1)OCO2.O=C(O)C(=O)O` (stereo not shown), the “hERG current change (%, negative = inhibition) at 1uM” value is on record as 0.25%.

Consider `Nc1ccc2c(c1)Cc1cc([N+](=O)[O-])ccc1-2`, for which the “hERG current change (%, negative = inhibition) at 1uM” value is listed as 16.8%. For the compound `Cc1occc1-c1nnc(SCC(=O)c2c(N)n(Cc3ccccc3)c(=O)n(C)c2=O)n1C`, the “hERG current change (%, negative = inhibition) at 1uM” value amounted to 11.7%. In the case of `COc1ccccc1-c1c(C)c(C)nc(N)c1C#N`, the “hERG current change (%, negative = inhibition) at 1uM” value is given as 6.92%. Regarding `Cc1ccc(NS(C)(=O)=O)c(C(=O)c2ccccc2)c1`, the “hERG current change (%, negative = inhibition) at 1uM” value is -8.81%.

For `Cc1ccccc1CC1SC(N)=NC1=O` (stereo not shown), the “hERG current change (%, negative = inhibition) at 1uM” value was found to be 10.2%. In the case of `S=c1nc(-c2ccc(Cl)cc2)[nH][nH]1` it was 17%.
